Structures are written as SMILES. Screen size: about 46,000 compounds; about 60 (0.1%) were called active. Not shown: some 3% with an inconclusive outcome. The call rests on the fitted dose curve; in most records, active means well fitted inhibition curve with a large enough effect; inconclusive means small, poorly fitted or top-dose-only effect; inactive means no such curve, though single readings can be large or run the other way. This is one part of the list.

The assay is described as follows: Primary qHTS assay for Inhibitors of ovarian cancer metastasis using an organotypic tumor microenvironment (TME) model. Further: nearly all actives have a fitted effect of over 65% in size.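 On activity change, negative = inhibition: plate controls were DMSO wells for no effect and tomatine positive control wells for full effect.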 As to conditions: SKOV3ip1-GFP adhesion/invasion on 3D omental model, fluorescence; series mostly up to 45.8 µM; activity change, negative = inhibition: at the top concentration. Put shortly: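 qHTS, 4-pt dose (0.36-46 umol/L); SKOV3ip1-GFP, 1,200 cells/well, no FBS; primary omental fibroblast/mesothelial co-culture 48 h pre-grown; 2 h RT + 16 h 37 C; PBS wash, 4% PFA; GFP count 488/509 nm.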
On the technique in general: Quantitative high-throughput screening tests each substance at several concentrations.
For `Cc1c(C(=O)N2CCC(C)CC2)c(S(=O)(=O)Nc2cccc(C(F)(F)F)c2)c(C)n1C`, the “activity change, negative = inhibition” value is inactive: 11.7%.
`COc1ccccc1CNC(=O)c1cnc(SC)nc1C`: the “activity change, negative = inhibition” value was inactive: 3.4%.
As to `COCC(=O)Nc1cccc(-c2nc3cccnc3s2)c1`, the result was inactive.
For the molecule `CC(C)N(Cc1ccccc1)C(=O)C1CCCN(c2ncnc3onc(-c4ccc(F)cc4)c23)C1` (stereo unspecified), the “activity change, negative = inhibition” value was inactive: -2.88%.
Take `COC(=O)c1cc2oc3ccccc3c2n1Cc1nc(-c2cccc(C)c2)oc1C`: the outcome was inactive.
For the molecule `COCCN1C(=O)c2oc3ccc(C)cc3c(=O)c2C12C(=O)N(C)c1ccccc12` (stereo unspecified), the “activity change, negative = inhibition” value was inactive: -4.92%.
Same read-out and setting: the result for `CC(=O)Nc1ccc(NC(=O)C2(c3cccs3)CCOCC2)cc1` reads inactive: 0.292%.
For the molecule `COc1ccc2[nH]cc(CCNC(=O)c3cnn(-c4ccc(C)cc4)c3C3CCN(C(=O)OC(C)(C)C)CC3)c2c1`, the molecule was called inactive.
Take `CC(C)C[C@H](NC(=O)CNC(=O)c1cc(Cl)ccc1Cl)B1OC(=O)CC(CC(=O)O)(C(=O)O)O1` (stereo partly specified): the “activity change, negative = inhibition” value was inactive: 8.47%.
On the same count and under the same terms, the result for `O=C(Nc1cc(-c2nc3cc(Cl)ccc3o2)ccc1Cl)c1cc([N+](=O)[O-])ccc1N1CCOCC1` reads inactive: 0.353%; that for `COc1ccc(NC(=O)c2sc3nc4c(c(-c5ccc(OC)cc5)c3c2N)C(=O)CC(C)(C)C4)cc1`, inactive: 3.52%.
On the same count and under the same terms, the result for `COc1ccc(-c2nc3scc(CCNC(=O)c4cccc(Br)c4)n3n2)cc1` reads inactive: -4.94%.
Consider `Cc1cc(-c2ccc(S(=O)(=O)N3CCN(c4ccc(Cl)cc4)CC3)s2)on1`, for which the molecule was classed as inactive.
On to `CCOC(=O)c1ccc(NC(=O)CC2Nc3ccccc3NC2=O)cc1` (stereo unspecified), for which the “activity change, negative = inhibition” value was inactive: -14.6%.
As for `CCOC(=O)c1ccc(N2C(=O)c3[nH]nc(-c4ccc(OCC)cc4)c3C2c2cccs2)cc1` (stereo unspecified), the “activity change, negative = inhibition” value was inactive: -2.6%.
On the same count and under the same terms, the result for `Cc1cc2n(n1)CCC(=O)N2Cc1ccc(C(=O)Nc2ccc(F)cc2F)cc1` reads inactive: 5.77%; that for `CCOc1cccc2c1Oc1nc(-c3ccccc3)nc(SCC(=O)Nc3ccc(F)cc3)c1C2`, inactive: 7.13%.
For `O=C(c1ccccc1Cl)N1CCCCC1CCN1CCOCC1` (stereo unspecified), the “activity change, negative = inhibition” value is inactive: 29.7%.
Still for that read-out and setting: the result for `Cc1ccc(-c2nnc(Nc3ccc(F)cc3)c3ccccc23)cc1S(=O)(=O)N1CCN(C)CC1` reads inactive: -26.9%.
Turning to `Cn1c(=O)c2sccc2n2c(CCCC(=O)NC3CCCCC3)nnc12`, the outcome was inactive.
Take `COc1ccccc1OCc1nc(C#N)c(NCc2ccc(C)cc2)o1`: the “activity change, negative = inhibition” value was inactive: -3.31%.
Same read-out and setting: the result for `CCn1cc(C(=O)O)c(=O)c2cc(F)c(N3CCNCC3)cc21` reads inactive: -4.37%.
In the case of `COc1ccc(NCc2cc3cc4c(cc3n(CC(=O)Nc3ccc(C)c(C)c3)c2=O)OCO4)cc1`, the outcome was inactive.
Consider `Cn1c(=O)oc2cc(S(=O)(=O)CCC(=O)NCCc3ccc(Cl)cc3)ccc21`, for which the “activity change, negative = inhibition” value is inactive: 3.97%.
Turning to `CC(C)(C)OC(=O)N1CCC(c2c(C(=O)N3CCCCC3)cnn2-c2ccccc2Cl)CC1`, the molecule was called inactive.
`COc1ccc(-c2nn(-c3ccccc3)cc2C2NC(=O)NC(C)=C2C(=O)OC(C)C)cc1Cl` (stereo unspecified): the molecule was called inactive.
As for `Cc1ccc(Cl)cc1N1CCN(S(=O)(=O)c2cc(Br)cc3c2N(C(=O)C2CC2)CC3)CC1`, the “activity change, negative = inhibition” value is inactive: -5.54%.
Turning to `CCOC(=O)c1cc(-c2ccc(F)cc2)n(CCC(=O)Nc2nc3ccc(OC)cc3s2)c1C`, the result was inactive.
As to `CC(=O)Nc1ccc(NC(=O)C(Cc2ccccc2)NS(=O)(=O)c2ccc3c(c2)oc(=O)n3C)cc1` (stereo unspecified), the “activity change, negative = inhibition” value was inactive: 1.88%.
With `CCOC(=O)CC(NC(=O)CCc1c(C)nc2c(c1C)c(=O)n(C)c(=O)n2C)c1ccc(OCC)c(OC)c1` (stereo unspecified), the “activity change, negative = inhibition” value was inactive: -13.3%.
As for `CCn1nc(C)c2c(-c3ccccc3)cc(=O)n(C(C)C(=O)NCCc3ccc(OC)c(OC)c3)c21` (stereo unspecified), the outcome was inactive.
As to `CCOc1cc(-c2ccc(OC(=O)c3ccc(OC)cc3)c(OC)c2)cc(=O)c2c(C)oc(C)c12`, the “activity change, negative = inhibition” value is inactive: 2.03%.
With `CCOc1ccc(S(=O)(=O)Nc2cc3c(C(=O)OC)c(COC)oc3c3ccccc23)cc1`, the molecule was classed as inactive.
As to `COc1ccc(S(=O)(=O)N(CC(=O)Nc2cc(Cl)ccc2C)Cc2ccccc2)cc1OC`, the “activity change, negative = inhibition” value was inactive: 4.27%.
Take `Cc1ccc(-n2nc(C)c3c(C)cc(=O)n(CC(=O)NC(C)c4ccccc4)c32)cc1` (stereo unspecified): the outcome was inactive.
Consider `Cc1ccc(N(CC(=O)Nc2cc(C)ccc2C)S(=O)(=O)c2c(C)noc2C)cc1`, for which the “activity change, negative = inhibition” value is inactive: -6.46%.
`Cc1ccc(N=C2NC(=O)CC(C(=O)Nc3cc(C(F)(F)F)ccc3Cl)S2)cc1` (stereo unspecified): the call was inactive.
In the case of `O=S(=O)(c1ccc(Cl)cc1)c1nnn2c1nc(NCc1ccc3c(c1)OCO3)c1sccc12`, the “activity change, negative = inhibition” value is inactive: 14.6%.
In the case of `CCC(=O)N1c2ccccc2CC1C(=O)NCc1ccc(N(C)C)cc1` (stereo unspecified), the molecule was called inactive.
As for `CC(=O)c1ccc(NC(=O)c2ccc(-n3cnnc3)cc2)cc1`, the “activity change, negative = inhibition” value was inactive: 0.307%.
The same measure, in the same setting: the result for `Cc1ccc(COC(=O)c2[nH]c3c(c2C)C(=O)CC(c2ccc(N(C)C)cc2)C3)cc1` (stereo unspecified) reads inactive: 2.93%.
Same read-out and setting: the result for `CCOc1ccccc1NC(=O)C1CCN(S(=O)(=O)c2ccc3c(c2)CCCN3C(C)=O)CC1` reads inactive: -3.57%.
Still for that read-out and setting: the result for `COc1cc(Cl)c(NS(=O)(=O)c2cc(-c3cc(C)no3)ccc2OC)c(OC)c1` reads inactive: 4.81%; that for `COc1ccc(-n2c(SCC(=O)c3ccccc3)nc3c([nH]c4ccccc43)c2=O)cc1`, inactive: -8.48%; that for `CCCCN(CC)CCNC(=O)C1CCCN(c2ncnc3onc(C)c23)C1` (stereo unspecified), inactive: 0.974%.
Turning to `Cc1ccc(CSCCC(=O)NCc2ccc(F)cc2Cl)cc1`, the outcome was inactive.

(Values after PubChem BioAssay AID1963576 (National Center for Advancing Translational Sciences (NCATS), 2024).)
